Measurements as given in PubChem BioAssay AID1508624 (National Center for Advancing Translational Sciences (NCATS), 2021).
Hit rate of the full screen: of about 48,000 compounds, about 120 (0.25%) were called active. Roughly 4% stayed inconclusive and do not appear here. Calls come from the whole dose curve; as a rule, active = well fitted activation curve with a large enough effect; inconclusive = small, poorly fitted or top-dose-only effect, or another doubt; inactive = no such curve, though single readings can be large or run the other way. Some of the results follow.

Assay: Primary qHTS for Identification of Small Molecule Activators of Huntingtin-Antisense Promoter Activity; note: nearly all actives have a fitted effect of over 55% in size
Details: HEK293 HTT-AS promoter firefly luciferase reporter, 24 h; series mostly up to 57.5 µM; activity change, positive = activation: at the top concentration
Outline: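 Firefly luciferase signal from promoter-reporter HEK293 cells was scaled between vehicle (0%) and zero RLU (-100%). Compounds were tested at final concentrations of up to 57.5 uM over 24 h at 37 degrees C. PTC124 at 50 uM final served as control inhibitor.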

Activity change, positive = activation, inactive:
CCCc1nn(C)c2c(=O)[nH]c(-c3cc(S(=O)(=O)N4CCN(C)CC4)ccc3OCC)nc12, CCc1cccc(C)c1Nc1c(-c2ccc(N3CCOCC3)cc2)nc2ncccn12 -13.3%, CC(=O)c1ccc(NC(=O)C2CCCN(S(=O)(=O)c3cn(C)cn3)C2)cc1 (stereo not drawn) -5.64%, Cc1c(CNC(C)c2ccccc2)c(C(=O)O)c(C)n1Cc1c(F)cccc1Cl (stereo not drawn) -19.7%, CCOc1ccc(-c2c(C)nn3c(C)c(C(=O)NCC(C)c4ccccc4)cnc23)cc1OCC (stereo not drawn) -29.8%, CCOC(=O)N1CCN([N+]([O-])=NOc2cc(ON=[N+]([O-])N3CCN(C(=O)OCC)CC3)c([N+](=O)[O-])cc2[N+](=O)[O-])CC1 -12.7%, Cc1ccc(CNC(=O)c2ccc3c(c2)N(Cc2cccc(Cl)c2)C(=O)CS3)cc1 -36.6%, Cc1cc(O)c(C(=O)c2cnc3c(c2)COc2ccccc2-3)cc1Cl -17.6%, CCOc1ccc(NC(=O)Cn2cc(C(=O)c3ccc(C)c(C)c3)c(=O)c3cc(F)ccc32)cc1 -7.95%, Cc1ccc(Cl)cc1NC(=O)Cn1c(=O)n(CCC(=O)N2CCc3ccccc3C2)c(=O)c2ccccc21 -8.62%, CN(C[C@@H]1COCCO1)S(=O)(=O)Nc1ccc2ccc3ncc(-c4cnn(C)c4)cc3c(=O)c2c1 -1%, COc1cc(NC(=O)CSc2nc3nc(C)c(Cc4ccccc4)c(C)n3n2)cc(OC)c1 -0.667%, CCOc1ccc2nc(N3CCCC(C(=O)NCCc4ccc(SC)cc4)C3)sc2c1 (stereo not drawn) 26.5%, CCN(c1ccc(C)cc1C)S(=O)(=O)c1nnc(NC(=O)CC(C)C)s1 -8.56%, CCOC(=O)c1cc2c(=O)n3ccccc3nc2n(Cc2ccco2)c1=NC(=O)c1ccccc1OC -6.78%, Cc1ccc(NC(=O)C2CCCN(c3nnc(C)c4c(C)n(-c5ccccc5)nc34)C2)cc1Cl (stereo not drawn) -20%, Cc1c2cnn(CC(=O)Nc3ccc(F)cc3F)c(=O)c2c(C)n1Cc1cccc(Cl)c1 -12.9%, Cc1cc(C)cc(OCC(=O)Nc2cccc(-c3nc4ccccc4[nH]3)c2)c1 -6.05%, O=C(Cn1c(=O)n(-c2ccc(F)cc2)c(=O)c2sccc21)Nc1cccc(C(F)(F)F)c1 -20.4%, COc1ccc(-n2nc3c(c2NC(=O)C(=O)N2CCN(C)CC2)CSC3)cc1 -7.81%, Cc1ccc(-n2nc3c(=O)n(C(C)C(=O)O)nc(C)c3c2C)cc1 (stereo not drawn) -5.54%, COc1ccc(Cn2c(C(=O)O)c(CNCCc3ccccc3Cl)c3ccc(C)cc32)cc1 -68.7%, CCC(=O)N1CCc2cc(S(=O)(=O)CCC(=O)NCc3ccc(F)cc3)ccc21 -27.6%, CC(C)NC(=O)c1cc2c(Cl)nc3ccccc3c2s1 -1.76%, Cc1ccc(N2C(=O)CS(=O)(=O)C23C(=O)N(Cc2ccccc2F)c2ccccc23)cc1Cl (stereo not drawn) -30.8%, O=C(COc1ccccc1Cl)Nc1ccccc1OCc1cc(=O)n2ccccc2n1 -3.6%, O=C(CN1C(=O)C2CCCCN2c2ccc(C(=O)N3CCCC3)cc21)NCc1ccccc1F (stereo not drawn) -8.16%, CN(c1ccccc1)C(CNS(=O)(=O)c1ccccc1)c1ccccc1 (stereo not drawn) -20.8%, CCCCN(CC)CCNc1ncnc2onc(-c3ccc(Cl)cc3)c12 -3.8%, COc1ccc(Cc2nnc(C(=O)NCCCN3CCN(c4ccccc4F)CC3)o2)cc1OC -30.8%, CC(C)COc1ccc(Nc2ncnc3ccc(Br)cc23)cc1 -19.5%, COC(=O)c1sccc1S(=O)(=O)N(CC(=O)NCc1ccc(F)cc1)c1ccc(C)c(C)c1 -18.6%, Cc1ccc(CN(Cc2ccco2)C(=O)c2cccc(C)c2)cc1 -27.7%, CNS(=O)(=O)c1cn(CC(=O)Nc2cccc(C(F)(F)F)c2)cc1S(=O)(=O)NC -11.4%, Cc1cccc(NC(=O)NC2COc3ccccc3C2)c1C (stereo not drawn) -11%, CNS(=O)(=O)c1cn(CC(=O)N2CCN(c3ccc(C)cc3C)CC2)cc1S(=O)(=O)NC -9.58%, CCCCS(=N)(=O)CCC(N)C(=O)O (stereo not drawn) 5.91%, Cc1cc(C)cc(NC(=O)C(=O)NCC(c2cccnc2)N2CCc3ccccc32)c1 (stereo not drawn) -22.4%, COc1cccc(C(=O)c2sc(Nc3ccc(F)c(Cl)c3)nc2N)c1 -9.97%, Cn1c(=O)c2sccc2n2c(CCC(=O)Nc3ccc(F)cc3)nnc12 -10.7%, C[C@@H]1CN(c2c(F)c(F)c3c(=O)c(C(=O)O)cn(C4CC4)c3c2F)C[C@H](C)N1 0.199% [at 25.1 µM, percent change from vehicle, -100% = no light], COc1ccc(OC)c(-c2noc(N3CCN(c4cc(Cl)ccc4C)CC3)n2)c1 -30%, Cc1ccc(C)c(NC(=O)CSc2nnc(C)n3c2cc2occc23)c1 -7.48%, CCC1CCCCN1CCCNC(=O)c1ccc2c(c1)sc1nc(-c3ccc(F)cc3)cn12 (stereo not drawn) 12.6%, COc1ccccc1NC(=O)CN1CCN(CC(=O)Nc2ccc(F)c(F)c2)CC1 -31.6%, O=S(=O)(Nc1cccc(-c2ccc(N3CCOCC3)nn2)c1)c1cc(C(F)(F)F)ccc1Cl 11.5%, COc1ccc(C2c3c(-c4ccccc4O)n[nH]c3C(=O)N2CCc2ccccc2)cc1 (stereo not drawn) -40.1%, COC(=O)c1ccc(Cl)cc1NC(=O)Nc1nnc(N(C)Cc2ccccc2)s1 -20.8%, CCOC(=O)c1ccc(CN(Cc2ccc(Br)cc2)S(=O)(=O)c2cccc(C(F)(F)F)c2)cc1 -23.7%, COc1ccc2c(c1)c(=O)c(C(=O)c1ccc(C)cc1)cn2Cc1ccccc1F -24.5%, CCC(C)(C)C(=O)O[C@H]1C[C@@H](C)C=C2C=C[C@H](C)[C@H](CC[C@@H]3C[C@@H](O)CC(=O)O3)[C@H]21, Cc1cc(C)c(Cn2c(=O)n(-c3ccccc3Cl)c(=O)c3c(C)c(C(=O)N(C)C)sc32)c(C)c1 -15.2%, COc1ccc(N2CCN(C(=O)c3ccc4c(c3)N(Cc3cc(C)ccc3C)C(=O)c3ccccc3S4=O)CC2)cc1 (stereo not drawn) -28.4%, Cc1cn2c(=O)cc(COc3cccc(NC(=O)c4ccccc4Cl)c3)nc2s1 0.0601%, COc1cccc(N2CC(NC(=O)C3CCCCC3)CC2=O)c1 (stereo not drawn) -5.49%, COc1ccc(C(=O)Nc2nnc(S(=O)(=O)N3CCN(c4ccc(C)cc4)CC3)s2)cc1 0.899%, CC(Oc1ccccc1)C(=O)Nc1nnc(S(=O)(=O)N2CCCCCC2)s1 (stereo not drawn) -18.6%, Cc1ccccc1C(=O)Nc1cccc(-c2cn3cccnc3n2)c1 -19.2%, Cc1ccc(Oc2nc3c(c(=O)n(Cc4ccccc4Cl)c(=O)n3C)n2C)cc1C -0.702%, COc1ccc(-c2cc3nc(C)c(CCC(=O)Nc4ccc(F)cc4F)c(C)n3n2)c(OC)c1 -20.6%, CCc1ccc(CNC(=O)C(CC)n2nc(C)c3c(C)n(-c4ccccc4)nc3c2=O)cc1 (stereo not drawn) -45%, Cc1cc(S(=O)(=O)n2ccnc2C(C)C)cc([N+](=O)[O-])c1C -11.9%, COc1ccc(C2Sc3ccccc3N(CCN(C)C)C(=O)C2OC(C)=O)cc1 (stereo not drawn) -8.44%, CCOC(=O)c1[nH]c2ccccc2c1NC(=O)c1ccccc1OC -27.1%, Cc1ccc(CCNC(=O)c2ccc(CNS(=O)(=O)c3ccc(C)cc3)cc2)cc1 -12.4%, Cc1ccc(Cl)cc1N1CCN(C(=O)c2cn(CC(C)C)c(=O)c3c2c2ccccc2n3C)CC1 -30.9%, CCOC(=O)c1nc(Nc2ccc(Cl)cc2)c2c(C)noc2n1 -13.8%, O=C(Nc1cc(C(F)(F)F)ccc1Cl)c1ccc2c(c1)CCN2S(=O)(=O)c1ccccc1 -0.347%, CCOc1ccc(NC(=O)Cn2cc(C(=O)c3ccc(OCC)cc3)c(=O)c3cc4c(cc32)OCCO4)cc1 -3.59%, Cc1ccc(CCNC(=O)c2cc3cc4cc(C)ccc4nc3s2)cc1 23.7%, COc1ccc(NC(=O)N(C(C)C)C2CCN(C(C)=O)CC2)c(OC)c1 -4.84%, COc1ccccc1Cn1c(CNS(=O)(=O)c2ccc(CC(C)C)cc2)nc2cccnc21 -29%, COc1cccc(N2C(=O)C(CC(=O)Nc3ccc(F)cc3)N(CCC3=CCCCC3)C2=O)c1 (stereo not drawn) -37.8%, COc1cccc(NC(=O)CN2C(=O)COc3ccc(S(=O)(=O)N4CCCCCC4)cc32)c1 -29.4%, O=C1C2=C(Nc3ccccc3SC2c2ccc(Cl)c(Cl)c2)c2ccccc21 (stereo not drawn) -63.2%, CCc1ccc(NC(=O)CC2C(=O)N(c3ccc(C)cc3)C(=O)N2CCc2ccncc2)cc1 (stereo not drawn) -18.1%, Nc1c(C(=O)NCc2ccc3c(c2)OCO3)nnn1CC(=O)Nc1ccc(Br)cc1 -12.2%, Cc1cccc(C)c1OCC(=O)N1CCC(c2nc3ccccc3o2)CC1 -19.3%, COc1ccc(NC(=O)CN(C)S(=O)(=O)c2ccc(C(=O)N3CCOCC3)s2)cc1 -15.6%, Cc1cc(SCC(=O)Nc2ccc(Cl)cc2)nc2ccccc12 14.4%, Cc1cccc(NC(=O)CSc2cn(CC(=O)N3CCCC3)c3ccccc23)c1C -23.4%, CC(=O)N1CCCc2cc(S(=O)(=O)N3CCCC(C(=O)NCc4ccccc4)C3)ccc21 (stereo not drawn) -28.2%, CCc1ccc(-c2cc(C)no2)cc1S(=O)(=O)Nc1ccc(Cl)cn1 -25.6%, COC(=O)c1ccc(NC(=O)N2CCC(CN3CCc4ccccc4C3)CC2)cc1 -20.5%, CCOc1ccc(C(=O)Nc2ccc(C(=O)OCc3cc(=O)n4nc(CC)sc4n3)cc2)cc1 -6.59%, COc1ccc(NC(=O)CSc2ccc(-c3cccs3)nn2)cc1 -0.977%, COc1ccc(/C=C/C(=O)N2CCC(c3nc4ccccc4o3)CC2)cc1 -9.15%, CCOc1ccc(N(CC)S(=O)(=O)N2CCCC(C(=O)Nc3ccc(NC(C)=O)cc3)C2)cc1 (stereo not drawn) -14.9%, CCS(=O)(=O)c1nc(S(=O)(=O)c2ccc(C)cc2)c(NCc2ccc(Cl)cc2)s1 -27.3%, CCOC(=O)c1ccc(NS(=O)(=O)c2cn(C)c(C)n2)cc1 -12%, Cc1ccc(S(=O)(=O)N2CCCc3cc(NC(=O)c4ccc(F)c(F)c4)ccc32)cc1 -24.6%, COc1cccc(C(=O)Nc2cc(-c3ccccc3)nn2-c2ccccc2)c1 -1.04%, CCOc1ccc(-c2c(C)nn3c(-c4ccccc4)c(C(=O)NCCOC)cnc23)cc1OCC -16%
